Measurements: PubChem BioAssay AID1645887 (National Center for Advancing Translational Sciences (NCATS), 2021)
Several values for one entry are separate records, joined by “and”; a condition that tells them apart may be missing. Identical values can stand only once. About 40 (0.2%) of roughly 16,000 compounds were called active. Inconclusive results (about 1%) are left out. Calls follow the shape of the dose curve; as a rule, active = well fitted activation curve with a large enough effect; inconclusive = small, poorly fitted or top-dose-only effect, or another doubt; inactive = no such curve, though single readings can be large or run the other way. The list shows a part of the results.

Each molecule was assayed against Rap guanine nucleotide exchange factor 4 (Homo sapiens) (UniProt Q8WZA2) (assay: Validation qHTS for agonist of cAMP-regulated guanine nucleotide exchange factor 4 (EPAC2)). Settings: EPAC2 Rap1B BODIPY-GDP exchange, fluorescence; activation: active compounds read high.
Outline: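 Signal normalized against 6.5 mM cAMP as agonist control. Mix of EPAC2 (100 nM), RAP1B-BODIPY-GDP (250 nM) and GDP (50 uM) was read kinetically at 480/540 nm, every 5 min over 30 min, after 5 min room-temperature incubation with compound.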
% is scaled to controls: 0 for no effect and ±100 for the full control effect.
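Also: exchange makes BODIPY-GDP fluorescence drop when released from Rap1B; series mostly up to about 150 µM.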

Sequence of UniProt Q8WZA2 (Q8WZA2 whole entry, looked up): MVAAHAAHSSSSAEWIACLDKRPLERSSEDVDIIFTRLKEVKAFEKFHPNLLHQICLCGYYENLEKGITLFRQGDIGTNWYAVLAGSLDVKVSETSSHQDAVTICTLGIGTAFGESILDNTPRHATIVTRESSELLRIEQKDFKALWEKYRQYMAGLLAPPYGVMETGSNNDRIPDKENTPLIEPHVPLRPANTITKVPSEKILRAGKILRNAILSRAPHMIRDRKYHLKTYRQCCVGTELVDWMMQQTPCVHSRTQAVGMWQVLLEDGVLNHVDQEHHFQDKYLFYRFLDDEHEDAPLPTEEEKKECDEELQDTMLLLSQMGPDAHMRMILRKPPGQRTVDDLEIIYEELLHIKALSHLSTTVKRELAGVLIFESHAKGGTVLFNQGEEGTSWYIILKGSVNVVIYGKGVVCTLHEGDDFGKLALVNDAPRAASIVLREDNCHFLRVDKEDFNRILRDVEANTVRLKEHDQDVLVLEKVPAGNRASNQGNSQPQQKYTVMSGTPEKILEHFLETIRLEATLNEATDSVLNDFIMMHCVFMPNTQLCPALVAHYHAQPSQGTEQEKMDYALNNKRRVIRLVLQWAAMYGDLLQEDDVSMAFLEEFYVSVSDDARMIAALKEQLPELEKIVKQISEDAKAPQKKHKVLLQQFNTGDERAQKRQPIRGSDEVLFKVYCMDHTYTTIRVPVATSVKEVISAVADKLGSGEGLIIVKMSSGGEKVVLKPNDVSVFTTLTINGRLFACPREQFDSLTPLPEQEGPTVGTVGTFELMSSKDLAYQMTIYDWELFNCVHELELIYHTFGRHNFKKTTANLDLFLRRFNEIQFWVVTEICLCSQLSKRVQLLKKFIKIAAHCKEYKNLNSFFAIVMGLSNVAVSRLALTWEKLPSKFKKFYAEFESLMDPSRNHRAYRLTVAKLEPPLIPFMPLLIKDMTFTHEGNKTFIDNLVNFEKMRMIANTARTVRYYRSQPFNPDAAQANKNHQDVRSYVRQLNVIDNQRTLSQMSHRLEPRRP

activation, inactive:
O=C(O)CCC/C=C\C[C@@H]1[C@@H](/C=C/[C@@H](O)COc2cccc(Cl)c2)[C@H](O)C[C@@H]1O -2.11% and 2.91%, c1ccc(Nc2ncnc3ccc(-c4cccnc4)cc23)cc1 -16.9%, O=c1c(-c2cc(O)c(O)c(O)c2)coc2cc(O)c(O)c(O)c12 -24.5%, N#Cc1cccc(-c2nc3cnc(N4CCOCC4)nc3n(C3CC3)c2=O)c1 -7.74%, NCCCNCCSP(=O)(O)O -2.18% and -17.3%, CC[C@@H](C(=O)[C@@H](C)[C@@H](O)[C@H](C)CCc1ccc(C)c(O)c1C(=O)O)[C@H]1O[C@](CC)([C@H]2CC[C@](O)(CC)[C@H](C)O2)C[C@@H]1C -17%, CC12CCCC(O)(C1)C1CC(C)(C)C1CC2 (centres undefined) -27.5%, CC(C)(C)c1ccc(C(O)CCCN2CCC(C(O)(c3ccccc3)c3ccccc3)CC2)cc1 (centres undefined) -11.2% and -17% and -12.6%, Cc1cc(=O)oc2c(O)c(O)ccc12 -5.12%, CC(COc1ccccc1)NC(C)C(O)c1ccc(O)cc1 (centres undefined) -1% and -3.85%, C[C@H](NC(=O)OC(C)(C)C)C(=O)c1ccco1 -10.1%, c1ccc(CC[n+]2ccncc2)cc1 -13.6%, c1ccc2nc(C3=NCCN3)ccc2c1 -4.08% and -23.9%, COc1ccc(C(=O)N2CCC3(CC2)CN(C(=O)Nc2cccc(C#N)c2)C3)cc1 -5.99%, C=C[C@@H]1c2cc(C)ccc2N(S(=O)(=O)c2ccc(C)cc2)[C@H](c2ccccc2)C1(C#N)C#N -17.9%, CCCCN1CCCCC1C(=O)Nc1c(C)cccc1C (centres undefined) -4.48%, CCOC(=O)NNc1nncc2ccccc12 -12.3% and 7.36%, Cc1cnc(CNc2ncncc2-c2ccccc2Cl)cn1 -14%, O=C1CC[C@@H](OCc2ccccc2)CCN1CC[C@H](Sc1ccccc1)c1ccccc1 -32.5%, O=C(O)C1(O)CC(O)C(O)C(O)C1 (centres undefined) -2.97%, COCC(=O)N1CCC[C@@]2(CCN(C(=O)Nc3cccc(F)c3)C2)C1 2.31%, Cc1cc(N(C)C)cc(C)c1/C=C/c1cc[n+](C)c2ccccc12 -16.7%, COc1cc(CN2CCCC(n3cc(C(=O)N4CCCCC4)nn3)C2)cc2c1OCO2 (centres undefined) -16.5%, S=c1[nH]c2ccccc2s1 -18.2% and 25.8% and 7.88%, CC(=O)c1c(O)cc(O)cc1O -11.1%, COCC(=O)N1CCC2(CCN(Cc3ccccc3)CC2)CC1 -14.8%, C[C@@H]1C[C@@H]2[C@H]3CCC4=CC(=O)C=C[C@]4(C)[C@]3(F)[C@@H](O)C[C@@]2(C)[C@@]1(O)C(=O)CO -9.48%, COC(=O)Oc1ccccc1C(=O)O -7.56%, COC(=O)N1CCC2(CCCN(Cc3ccc(C#N)cc3)C2)CC1 -6.6%, N#CCCN1CCN(Cc2ccccc2)CCC1=O -4.29%, COC(=O)[C@@H]1CCCN1Cc1ccc2c(c1)CN(Cc1coc3ccccc3c1=O)CCO2 -2.8%, COCC(=O)Nc1cc(C(=O)N2CCN(c3ccc(Cl)cn3)CC2)c2c(c1)nc(C1CCC1)n2C -6.02%, COc1ccccc1C1CN(Cc2c(C)nn(C)c2Cl)Cc2ccccc2O1 (centres undefined) -0.917%, O=C(CN1CCNCC1)NC1CCCCC1 -6.19%, Cc1ccccc1CN1[C@H](C)[C@H](c2ccccc2)OCCS1(=O)=O -26.8%, COc1ccc(-n2c(=O)cnc3cnc(Oc4ccccc4)nc32)cc1 -3.25%, CC(=O)N[C@@H](C=O)[C@@H](O)[C@H](O)[C@H](O)CO -11.2%, CCS(=O)(=O)N1CCC[C@H]2CN3CCc4cc(OC)ccc4[C@@H]3C[C@@H]21 1.88% and 11.8%, O=C(NCCc1ccccc1)[C@@H]1CC=C[C@@H]2CCN(C3CC3)C(=O)[C@@H]21 -1.27%, COc1ccc(NC(=O)N2CCC3(CC2)CCN(C(=O)c2cnccn2)CC3)cc1 -7.18%, CC1(C)C=CC(=O)[C@]2(C)C1CC(=O)[C@]1(C)C2CC[C@@]2(C)C(c3ccoc3)OC(=O)C3OC321 (some centres undefined) -3.28%, O=C(c1csnn1)N1CCC2(CCN(Cc3ccccc3)CC2)CC1 -5.47%, O=C(c1cnccn1)N1CCC2(CCCN(Cc3ccccc3)C2)CC1 -10.2%, O=c1cnc2cnc(OCc3ccccc3)nc2n1Cc1ccc(F)cc1 -3.32%, CN(C)c1ccc(/C=C/c2ccnc3c(O)ccc(O)c23)cc1 -13.4%, O=C1C(=O)c2ccccc2C(O)=C1C1CCC(c2ccc(Cl)cc2)CC1 (centres undefined) -13.6% and -14.2%, NC(Cc1c[nH]c2ccccc12)C(=O)O (centres undefined) 2.37%, O=S(=O)(/C=C/c1ccccc1)N1CCC(n2c(C3CCCO3)nc3cccnc32)CC1 (centres undefined) -0.911%, COCCN1CCN(C(=O)c2cnn(-c3nccc(-c4cc5ccccc5o4)n3)c2C2CC2)CC1 -6.75%, CC(C)=CCC[C@@](C)(O)[C@H]1CC=C(C)CC1 -19%, Clc1cccc[n+]1CCCC[n+]1ccccc1Cl -11%, CC12CCC3c4ccc(OCc5ccccc5)cc4CCC3C1CC(O)C2O (centres undefined) 5.41%, O=C(c1cnccn1)N1CCC[C@@]2(CCN(Cc3cc(C(F)(F)F)cc(C(F)(F)F)c3)C2)C1 -6.14%, CN1[C@@H]2CC[C@H]1CC(OC(c1ccccc1)c1ccccc1)C2 (some centres undefined) -14.1% and -1.76% and -24.3%
